According to paper PMC8385403:
These are yes or no findings as the source states them, for the method shown. In cells and extracts the contact can be indirect. Some entries that bind do so weakly or less than the wild type.

The chains behind the UniProt entries cited, without tags or fusion partners. Where a name states a change or a piece, a line headed by the entry shows the natural chain unless it says otherwise.
UniProt P35580: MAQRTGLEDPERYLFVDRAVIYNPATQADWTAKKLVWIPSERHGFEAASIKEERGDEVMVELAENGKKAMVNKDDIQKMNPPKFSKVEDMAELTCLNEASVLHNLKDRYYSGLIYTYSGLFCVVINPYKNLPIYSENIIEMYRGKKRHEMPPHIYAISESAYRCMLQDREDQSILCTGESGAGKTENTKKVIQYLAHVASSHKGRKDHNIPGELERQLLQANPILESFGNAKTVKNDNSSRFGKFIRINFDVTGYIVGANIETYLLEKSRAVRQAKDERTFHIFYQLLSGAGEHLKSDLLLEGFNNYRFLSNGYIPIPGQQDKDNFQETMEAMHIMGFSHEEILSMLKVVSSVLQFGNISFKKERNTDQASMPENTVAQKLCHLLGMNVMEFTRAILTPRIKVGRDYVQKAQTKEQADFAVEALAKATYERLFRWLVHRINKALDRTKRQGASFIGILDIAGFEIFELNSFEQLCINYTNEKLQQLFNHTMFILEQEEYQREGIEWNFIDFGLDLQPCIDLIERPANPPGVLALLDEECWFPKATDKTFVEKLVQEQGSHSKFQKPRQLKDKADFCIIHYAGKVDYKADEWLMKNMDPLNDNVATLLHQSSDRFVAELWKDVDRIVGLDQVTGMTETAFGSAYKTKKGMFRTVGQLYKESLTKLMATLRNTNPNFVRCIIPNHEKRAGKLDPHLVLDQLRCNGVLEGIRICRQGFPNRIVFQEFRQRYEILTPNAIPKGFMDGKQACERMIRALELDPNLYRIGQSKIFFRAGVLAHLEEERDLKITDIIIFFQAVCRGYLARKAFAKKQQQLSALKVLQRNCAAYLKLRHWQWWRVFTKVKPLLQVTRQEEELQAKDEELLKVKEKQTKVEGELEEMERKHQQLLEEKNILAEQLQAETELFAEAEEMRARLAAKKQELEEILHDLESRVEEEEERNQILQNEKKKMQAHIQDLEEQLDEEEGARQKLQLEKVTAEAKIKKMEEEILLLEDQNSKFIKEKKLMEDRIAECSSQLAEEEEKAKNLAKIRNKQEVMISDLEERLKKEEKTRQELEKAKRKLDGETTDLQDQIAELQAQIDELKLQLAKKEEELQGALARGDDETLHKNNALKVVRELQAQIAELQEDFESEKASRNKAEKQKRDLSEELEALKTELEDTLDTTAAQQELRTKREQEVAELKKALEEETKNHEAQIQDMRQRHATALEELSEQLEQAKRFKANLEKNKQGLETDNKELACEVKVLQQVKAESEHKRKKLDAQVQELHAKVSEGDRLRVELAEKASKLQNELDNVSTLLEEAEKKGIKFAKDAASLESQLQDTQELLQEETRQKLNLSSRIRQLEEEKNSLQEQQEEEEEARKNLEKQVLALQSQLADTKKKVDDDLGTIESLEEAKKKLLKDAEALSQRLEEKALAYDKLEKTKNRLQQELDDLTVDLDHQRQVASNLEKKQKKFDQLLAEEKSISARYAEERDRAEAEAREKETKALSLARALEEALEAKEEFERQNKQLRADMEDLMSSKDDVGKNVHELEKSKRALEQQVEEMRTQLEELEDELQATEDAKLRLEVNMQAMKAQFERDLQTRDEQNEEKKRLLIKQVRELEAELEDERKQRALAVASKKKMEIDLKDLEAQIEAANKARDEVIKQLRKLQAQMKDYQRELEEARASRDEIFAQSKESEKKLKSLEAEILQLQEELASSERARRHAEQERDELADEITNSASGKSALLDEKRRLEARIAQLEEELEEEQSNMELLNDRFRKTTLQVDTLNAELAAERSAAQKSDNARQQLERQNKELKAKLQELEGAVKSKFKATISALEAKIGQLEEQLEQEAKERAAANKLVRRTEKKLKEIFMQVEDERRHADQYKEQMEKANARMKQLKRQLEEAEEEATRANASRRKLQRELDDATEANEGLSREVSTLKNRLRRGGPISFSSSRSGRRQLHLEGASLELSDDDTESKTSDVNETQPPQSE
UniProt Q96GD4: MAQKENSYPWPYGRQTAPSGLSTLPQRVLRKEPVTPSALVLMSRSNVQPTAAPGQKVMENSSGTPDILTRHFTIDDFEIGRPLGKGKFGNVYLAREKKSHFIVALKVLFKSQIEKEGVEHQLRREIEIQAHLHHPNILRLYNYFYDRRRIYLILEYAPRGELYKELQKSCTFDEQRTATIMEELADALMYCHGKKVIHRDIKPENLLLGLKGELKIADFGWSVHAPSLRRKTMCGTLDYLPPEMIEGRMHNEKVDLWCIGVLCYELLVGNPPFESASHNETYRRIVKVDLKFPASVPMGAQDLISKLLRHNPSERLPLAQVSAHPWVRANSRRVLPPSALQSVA
UniProt O15392: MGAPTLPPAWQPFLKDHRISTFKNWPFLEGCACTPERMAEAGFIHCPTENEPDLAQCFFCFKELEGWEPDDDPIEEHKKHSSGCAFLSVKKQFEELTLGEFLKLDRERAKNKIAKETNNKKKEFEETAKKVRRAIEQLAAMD

How the values were obtained:
[1] = target: nonmuscle myosin IIB (endogenous NMIIB heavy chain) (human (endogenous in HEK293T)) (UniProt P35580); assay: co-IP; HEK293T cells cotransfected with GFP-Aurora-B and GFP-survivin or GFP-survivin^L6A/W10A; endogenous NMIIB precipitated with anti-NMIIB antibody; blot with anti-NMIIB and anti-GFP
[2] = target: nonmuscle myosin IIB (endogenous NMIIB heavy chain) (human (endogenous in HEK293T)) (UniProt P35580); assay: co-IP; HEK293T cells transfected with one GFP construct; endogenous NMIIB precipitated with anti-NMIIB antibody on protein A/G beads, 4 °C; extraction buffer 20 mM Tris-HCl pH 8.0, 225 mM NaCl, 0.5 mM EDTA, 1% NP-40, 5% glycerol, 1 mM DTT; blot with anti-NMIIB and anti-GFP; for GFP-Aurora-B also after 100 nM AZD1152-HQPA for 1 h (DMSO as control)

Substance	binding [1]	binding [2]
GFP-Aurora-B (from UniProt Q96GD4 1-344) (enzyme)	binds	binds
GFP-Aurora-B^K106R (from UniProt Q96GD4 1-344) (enzyme)	–	binds
GFP-survivin (from UniProt O15392 1-142)	binds	binds
GFP-survivin^L6A/W10A (from UniProt O15392 1-142)	no binding	–
GFP-survivin^T117A (from UniProt O15392 1-142)	–	binds
GFP-survivin^T117D (from UniProt O15392 1-142)	–	binds
